Assay results from US20230012428A1 (JIANGSU HENGRUI MEDICINE, published 2023).

How the values were obtained:
Cyno PD-L1-His [1] = target: T1, Cyno PD-L1-His (cyno, UniProt G7PSE7 19-239); assay: ELISA, PD-L1-his coated on plate
T1 construct: Bought; not shown: His tag

hPD-L1-His [2] = target: T2, hPD-L1-His (human, UniProt Q9NZQ7 in part); assay: ELISA, PD-L1-his coated on plate
T2 construct: Bought; also called Human PD-L1-his; Human PD-L1; not shown: His tag

mPD-L1 [3] = target: T3, mPD-L1 (mouse, UniProt Q9EP73 in part); assay: ELISA, PD-L1-his coated on plate
T3 construct: Bought; also called Mouse PD-L1-his; Mouse PD-L1

[4] = target: T4, PD-L1-Fc (prepared in-house) (human, UniProt Q9NZQ7 in part, limits assumed); assay: blocking ELISA, PD-L1-Fc coated, competitor biotin-labeled B7-1
T4 construct: Prepared in-house; also called human PD-L1-Fc; not shown: Fc

Cyno CD47-his [5] = target: T5, Cyno CD47-his (cyno, UniProt A0A2K5X523 19-139); assay: ELISA, CD47-his coated on plate
T5 construct: extracellular domain; not shown: His tag

[6] = target: T6, Human CD47-his (CD47-ECD-His) (human, UniProt Q08722 in part, limits assumed); assay: ELISA, CD47-his coated on plate
T6 construct: also called hCD47; free human CD47 protein

Cyno CD47-his [7] = target: T5, Cyno CD47-his; assay: SPR (Biacore T200), binder captured on Protein A chip, antigen in flow
Cyno PD-L1-His [8] = target: T1, Cyno PD-L1-His; assay: as above
hPD-L1-His [9] = target: T2, hPD-L1-His; assay: as above
[10] = target: T6, Human CD47-his (CD47-ECD-His); assay: as above
mPD-L1 [11] = target: T3, mPD-L1; assay: as above
[12] = target: T4, PD-L1-Fc (prepared in-house); assay: blocking ELISA, PD-L1-Fc coated, competitor biotin-labeled PD-1
Cyno CD47-his [13] = target: T5, Cyno CD47-his; assay: ELISA, CD47-his coated on plate; remark: listed apart in the source
[14] = target: T6, Human CD47-his (CD47-ECD-His); assay: ELISA, CD47-his coated on plate; remark: listed apart in the source

T6 sequence (Q08722 19-139 limits assumed): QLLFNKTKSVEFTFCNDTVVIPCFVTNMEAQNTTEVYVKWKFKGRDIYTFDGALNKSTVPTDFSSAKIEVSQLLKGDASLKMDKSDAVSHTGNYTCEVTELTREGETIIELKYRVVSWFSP
T2 sequence (Q9NZQ7 19-239 limits assumed): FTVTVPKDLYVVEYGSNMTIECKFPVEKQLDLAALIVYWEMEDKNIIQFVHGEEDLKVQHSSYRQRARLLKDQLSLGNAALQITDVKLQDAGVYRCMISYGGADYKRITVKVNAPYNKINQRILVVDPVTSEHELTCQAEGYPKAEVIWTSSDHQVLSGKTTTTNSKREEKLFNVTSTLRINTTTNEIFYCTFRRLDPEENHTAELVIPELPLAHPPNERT
T1 sequence (G7PSE7 entry or part of it): as the sequence (Q9NZQ7 19-239 limits assumed) above, with A33T, A34S, S62N, R68Q, Q82R, F173L, T185A, T192I, H215L counted along it
T4 sequence (Q9NZQ7 19-238 limits assumed): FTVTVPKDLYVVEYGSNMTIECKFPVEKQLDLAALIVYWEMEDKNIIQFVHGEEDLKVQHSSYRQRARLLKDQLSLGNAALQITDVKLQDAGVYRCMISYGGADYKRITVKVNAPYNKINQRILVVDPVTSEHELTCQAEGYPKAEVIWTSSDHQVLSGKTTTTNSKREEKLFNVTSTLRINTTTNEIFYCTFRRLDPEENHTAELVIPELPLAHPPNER
T3 sequence (Q9EP73 19-238 limits assumed): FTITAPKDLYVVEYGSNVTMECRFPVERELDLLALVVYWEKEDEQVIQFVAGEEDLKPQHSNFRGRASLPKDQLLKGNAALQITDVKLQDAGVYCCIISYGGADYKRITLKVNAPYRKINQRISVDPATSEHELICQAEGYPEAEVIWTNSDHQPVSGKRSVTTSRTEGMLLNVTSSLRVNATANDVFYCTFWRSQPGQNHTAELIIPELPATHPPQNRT

B1: h1830-S37 (bispecific antibody, human IgG4 S228P, kappa)
heavy: QVQLQESGPGLVKPSQTLSLTCTVSGGSISDGSAYWSWIRQHPGKGLEYIGFISRAGSTYNTPSLKGRVTISRDTSKNQFSLKLSSVTAADTAVYYCARSGGWLAPFDYWGRGTLVTVSSASTKGPSVFPLAPCSRSTSESTAALGCLVKDYFPEPVTVSWNSGALTSGVHTFPAVLQSSGLYSLSSVVTVPSSSLGTKTYTCNVDHKPSNTKVDKRV[human IgG4 Fc with S228P (EU numbers) not given here]GGGGSGGGGSGGGGGGEEELQMIQPEKLLLVTVGETATLHCTVTSLLPVGPVLWFRGVGPGRELIYMSGRGHFPRVTTVSDLTKRNNKDFSIRISSITPADVGTYYCVKFRKGSPEDVEFKSGPGTEMALGAKPS
light: DIVMTQSPDSLAVSLGERATINCKSSQSLFYHSNQKHSLAWYQQKPGQPPKLLIYGASTRESGVPDRFSGSGSGTDFTLTISSLQAEDVAVYYCQQYYGYPYTFGGGTKVEIKRTVAAPSVFIFPPSDEQLKSGTASVVCLLNNFYPREAKVQWKVDNALQSGNSQESVTEQDSKDSTYSLSSTLTLSKADYEKHKVYACEVTHQGLSSPVTKSFNRGEC
notes: also called PD-L1-CD47 bifunctional fusion protein
Question: How did the EC50 (Cyno PD-L1-His [1]) turn out when B1 was run?
Answer: 0.177 µg/mL

Question: What about the EC50 (hPD-L1-His [2]) of the same binder?
Answer: 0.0993 µg/mL

Question: What about the EC50 (mPD-L1 [3]) of the same binder?
Answer: 0.032 µg/mL

Question: And the IC50 [4]?
Answer: 0.169 µg/mL

Question: And the EC50 (Cyno CD47-his [5])?
Answer: 0.0306 µg/mL

Question: And the EC50 [6]?
Answer: 0.0407 µg/mL

Question: And the Kd (Cyno CD47-his [7])?
Answer: 2.03 nM

Question: And the Kd (Cyno PD-L1-His [8])?
Answer: 0.409 nM

Question: And the Kd (hPD-L1-His [9])?
Answer: 0.387 nM

Question: What about the Kd [10] of the same binder?
Answer: 1.72 nM

Question: What about the Kd (mPD-L1 [11]) of the same binder?
Answer: 70.9 nM

Question: What about the IC50 [12] of the same binder?
Answer: 0.146 µg/mL

Question: What about the EC50 (Cyno CD47-his [13]) of the same binder?
Answer: 0.0515 µg/mL

Question: What about the EC50 [14] of the same binder?
Answer: 0.0538 µg/mL

Read-outs that look alike come from different tables or passages of the source.
